# Assay results from the supplement of paper PMC8728848.
# This is one part of the list.
# B1: GSL-I (Griffonia simplicifolia) (protein)
# chain: FNLPNFWSDVKDNIIFQGDANTTAGTLQLCKTNQYGNPLQYRAGRALYSDPVQLWDNKTGSVASFYTEFTFFLKITGDGPADGLAFFLAPPDSDVKDAGAYLGLFNKSTATQPSKNQVVAVEFDTWKNTDFPEPSYRHIGINVNSIVSVATKRWEDSDIFSGKIATARISYDGSAKILTVVLSYPDGADYILSHSVDLSKNLPNPIRVGISASTGANQFLTVYVLSWRFSSALQSTSVNAAMGPEIIRTVV
# Columns and labels:
# Assay in all cases: glycan array binding signal (z-score within array); higher = stronger binding
# Conditions in all cases: glycan notation: IUPAC condensed, linker removed
# [1] = target: Neu5Ac(a2-3)Gal(b1-4)[Fuc(a1-3)]GlcNAc(b1-3)GalNAc
# Method in brief: (§1)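 Negative Z-scores can be read as non-binding. The Z-score is calculated within each array and then averaged across arrays of one protein sequence at different concentrations or buffers and across linkers. Arrays, 3228 in all, were curated from the Consortium for Functional Glycomics database and kept only where the protein sequence was available.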
# [2] = target: Neu5Ac(a2-3)Gal(b1-4)[Fuc(a1-3)]GlcNAc(b1-6)[Gal(b1-3)]GalNAc
# Method in brief: as §1
# [3] = target: Neu5Ac(a2-3)Gal(b1-4)[Fuc(a1-3)]GlcNAc(b1-6)[Neu5Ac(a2-3)Gal(b1-3)]GalNAc
# Method in brief: as §1
# [4] = target: Neu5Ac(a2-3)Gal(b1-4)[Fuc(a1-3)]GlcNAc6S
# Method in brief: as §1
# [5] = target: Neu5Ac(a2-3)Gal6S(b1-4)GlcNAc
# Method in brief: as §1
# [6] = target: Neu5Ac(a2-3)Gal6S(b1-4)[Fuc(a1-3)]GlcNAc
# Method in brief: as §1
# Neu5Ac(a2-3)GalNAc = target: Neu5Ac(a2-3)GalNAc
# Method in brief: as §1
# [7] = target: Neu5Ac(a2-3)GalNAc(b1-4)GlcNAc
# Method in brief: as §1
# [8] = target: Neu5Ac(a2-3)[GalNAc(b1-4)]Gal(b1-4)Glc
# Method in brief: as §1
# [9] = target: Neu5Ac(a2-3)[GalNAc(b1-4)]Gal(b1-4)GlcNAc
# Method in brief: as §1
# [10] = target: Neu5Ac(a2-3)[GalNAc(b1-4)]Gal(b1-4)GlcNAc(b1-3)GalNAc
# Method in brief: as §1
# [11] = target: Neu5Ac(a2-3)[Neu5Ac(a2-6)]GalNAc
# Method in brief: as §1
# Neu5Ac(a2-6)Gal = target: Neu5Ac(a2-6)Gal
# Method in brief: as §1
# [12] = target: Neu5Ac(a2-6)Gal(b1-3)GlcNAc(b1-3)[Gal(b1-4)GlcNAc(b1-6)]Gal(b1-4)Glc
# Method in brief: as §1
# Neu5Ac(a2-6)Gal(b1-4)Glc = target: Neu5Ac(a2-6)Gal(b1-4)Glc
# Method in brief: as §1
# [13] = target: Neu5Ac(a2-6)Gal(b1-4)GlcNAc
# Method in brief: as §1
# [14] = target: Neu5Ac(a2-6)Gal(b1-4)GlcNAc(b1-2)Man
# Method in brief: as §1
# [15] = target: Neu5Ac(a2-6)Gal(b1-4)GlcNAc(b1-2)Man(a1-3)Man(b1-4)GlcNAc(b1-4)GlcNAc
# Method in brief: as §1
# [16] = target: Neu5Ac(a2-6)Gal(b1-4)GlcNAc(b1-2)Man(a1-3)[Gal(b1-4)GlcNAc(b1-2)Man(a1-6)]Man(b1-4)GlcNAc(b1-4)GlcNAc
# Method in brief: as §1
# [17] = target: Neu5Ac(a2-6)Gal(b1-4)GlcNAc(b1-2)Man(a1-3)[GlcNAc(b1-2)Man(a1-6)]Man(b1-4)GlcNAc(b1-4)GlcNAc
# Method in brief: as §1
# [18] = target: Neu5Ac(a2-6)Gal(b1-4)GlcNAc(b1-2)Man(a1-3)[GlcNAc(b1-4)][Neu5Ac(a2-6)Gal(b1-4)GlcNAc(b1-2)Man(a1-6)]Man(b1-4)GlcNAc(b1-4)GlcNAc
# Method in brief: as §1
# [19] = target: Neu5Ac(a2-6)Gal(b1-4)GlcNAc(b1-2)Man(a1-3)[Man(a1-6)]Man(b1-4)GlcNAc(b1-4)GlcNAc
# Method in brief: as §1
# [20] = target: Neu5Ac(a2-6)Gal(b1-4)GlcNAc(b1-2)Man(a1-3)[Neu5Ac(a2-3)Gal(b1-4)GlcNAc(b1-2)Man(a1-6)]Man(b1-4)GlcNAc(b1-4)GlcNAc
# Method in brief: as §1
# [21] = target: Neu5Ac(a2-6)Gal(b1-4)GlcNAc(b1-2)Man(a1-3)[Neu5Ac(a2-6)Gal(b1-4)GlcNAc(b1-2)Man(a1-6)]Man(b1-4)GlcNAc(b1-4)GlcNAc
# Method in brief: as §1
# [22] = target: Neu5Ac(a2-6)Gal(b1-4)GlcNAc(b1-2)Man(a1-3)[Neu5Ac(a2-6)Gal(b1-4)GlcNAc(b1-2)Man(a1-6)]Man(b1-4)GlcNAc(b1-4)[Fuc(a1-6)]GlcNAc
# Method in brief: as §1
# [23] = target: Neu5Ac(a2-6)Gal(b1-4)GlcNAc(b1-2)Man(a1-6)Man(b1-4)GlcNAc(b1-4)GlcNAc
# Method in brief: as §1
# [24] = target: Neu5Ac(a2-6)Gal(b1-4)GlcNAc(b1-2)Man(a1-6)[Gal(b1-4)GlcNAc(b1-2)Man(a1-3)]Man(b1-4)GlcNAc(b1-4)GlcNAc
# Method in brief: as §1
# [25] = target: Neu5Ac(a2-6)Gal(b1-4)GlcNAc(b1-2)Man(a1-6)[GlcNAc(b1-2)Man(a1-3)]Man(b1-4)GlcNAc(b1-4)GlcNAc
# Method in brief: as §1
# [26] = target: Neu5Ac(a2-6)Gal(b1-4)GlcNAc(b1-2)Man(a1-6)[Man(a1-3)]Man(b1-4)GlcNAc(b1-4)GlcNAc
# Method in brief: as §1
# [27] = target: Neu5Ac(a2-6)Gal(b1-4)GlcNAc(b1-2)[Neu5Ac(a2-6)Gal(b1-4)GlcNAc(b1-4)]Man(a1-3)[GlcNAc(b1-4)][Neu5Ac(a2-6)Gal(b1-4)GlcNAc(b1-2)[Neu5Ac(a2-6)Gal(b1-4)GlcNAc(b1-6)]Man(a1-6)]Man(b1-4)GlcNAc(b1-4)GlcNAc
# Method in brief: as §1
# [28] = target: Neu5Ac(a2-6)Gal(b1-4)GlcNAc(b1-2)[Neu5Ac(a2-6)Gal(b1-4)GlcNAc(b1-4)]Man(a1-3)[GlcNAc(b1-4)][Neu5Ac(a2-6)Gal(b1-4)GlcNAc(b1-4)Man(a1-6)]Man(b1-4)GlcNAc(b1-4)GlcNAc
# Method in brief: as §1
# [29] = target: Neu5Ac(a2-6)Gal(b1-4)GlcNAc(b1-2)[Neu5Ac(a2-6)Gal(b1-4)GlcNAc(b1-6)]Man(a1-6)[Neu5Ac(a2-6)Gal(b1-4)GlcNAc(b1-2)Man(a1-3)][GlcNAc(b1-4)]Man(b1-4)GlcNAc(b1-4)GlcNAc
# Method in brief: as §1
# [30] = target: Neu5Ac(a2-6)Gal(b1-4)GlcNAc(b1-3)Gal(b1-3)GlcNAc
# Method in brief: as §1
# [31] = target: Neu5Ac(a2-6)Gal(b1-4)GlcNAc(b1-3)Gal(b1-4)GlcNAc
# Method in brief: as §1
# [32] = target: Neu5Ac(a2-6)Gal(b1-4)GlcNAc(b1-3)Gal(b1-4)GlcNAc(b1-2)Man(a1-3)[Neu5Ac(a2-6)Gal(b1-4)GlcNAc(b1-3)Gal(b1-4)GlcNAc(b1-2)Man(a1-6)]GalNAc
# Method in brief: as §1
# [33] = target: Neu5Ac(a2-6)Gal(b1-4)GlcNAc(b1-3)Gal(b1-4)GlcNAc(b1-3)Gal(b1-4)GlcNAc
# Method in brief: as §1
# [34] = target: Neu5Ac(a2-6)Gal(b1-4)GlcNAc(b1-3)Gal(b1-4)GlcNAc(b1-3)Gal(b1-4)GlcNAc(b1-2)Man(a1-3)[Neu5Ac(a2-6)Gal(b1-4)GlcNAc(b1-3)Gal(b1-4)GlcNAc(b1-3)Gal(b1-4)GlcNAc(b1-2)Man(a1-6)]GalNAc
# Method in brief: as §1
# [35] = target: Neu5Ac(a2-6)Gal(b1-4)GlcNAc(b1-3)Gal(b1-4)GlcNAc(b1-3)GalNAc
# Method in brief: as §1
binder,measurement,setting,value
B1,glycan array binding signal (z-score),[1],-0.023
same,glycan array binding signal (z-score),[2],-0.095
same,glycan array binding signal (z-score),[3],-0.15
same,glycan array binding signal (z-score),[4],-0.263
same,glycan array binding signal (z-score),[5],-0.252
same,glycan array binding signal (z-score),[6],-0.274
same,glycan array binding signal (z-score),Neu5Ac(a2-3)GalNAc,-0.229
same,glycan array binding signal (z-score),[7],-0.273
same,glycan array binding signal (z-score),[8],-0.193
same,glycan array binding signal (z-score),[9],-0.205
same,glycan array binding signal (z-score),[10],0.328
same,glycan array binding signal (z-score),[11],-0.202
same,glycan array binding signal (z-score),Neu5Ac(a2-6)Gal,-0.241
same,glycan array binding signal (z-score),[12],-0.136
same,glycan array binding signal (z-score),Neu5Ac(a2-6)Gal(b1-4)Glc,-0.17
same,glycan array binding signal (z-score),[13],-0.173
same,glycan array binding signal (z-score),[14],-0.174
same,glycan array binding signal (z-score),[15],-0.209
same,glycan array binding signal (z-score),[16],-0.107
same,glycan array binding signal (z-score),[17],-0.156
same,glycan array binding signal (z-score),[18],-0.236
same,glycan array binding signal (z-score),[19],-0.184
same,glycan array binding signal (z-score),[20],-0.19
same,glycan array binding signal (z-score),[21],-0.183
same,glycan array binding signal (z-score),[22],-0.304
same,glycan array binding signal (z-score),[23],-0.248
same,glycan array binding signal (z-score),[24],0.106
same,glycan array binding signal (z-score),[25],-0.103
same,glycan array binding signal (z-score),[26],-0.244
same,glycan array binding signal (z-score),[27],-0.313
same,glycan array binding signal (z-score),[28],-0.291
same,glycan array binding signal (z-score),[29],-0.251
same,glycan array binding signal (z-score),[30],-0.222
same,glycan array binding signal (z-score),[31],-0.179
same,glycan array binding signal (z-score),[32],-0.064
same,glycan array binding signal (z-score),[33],-0.169
same,glycan array binding signal (z-score),[34],0.729
same,glycan array binding signal (z-score),[35],-0.339
